Assay results: the supplement of paper PMC12217912
The list shows a part of the results. The full chains were built here from the parent and the listed change. Inactive controls read about 0.05.

B1: TEV protease; numbered along this chain (parent)
chain: MGESLFKGPRDYNPISSSICHLTNESDGHTTSLYGIGFGPFIITNKHLFRRNNGTLVVQSLHGVFKVKDTTTLQQHLVDGRDMIIIRMPKDFPPFPQKLKFREPQREERICLVTTNFQTKSMSSMVSDTSCTFPSGDGIFWKHWIQTKDGQCGSPLVSTRDGFIVGIHSASNFTNTNNYFTSVPKNFMELLTNQEAQQWVSGWRLNADSVLWGGHKVFMVKPEEPFQPVKEATQL

Variants of: B1
Test: raw area under fraction-flipped curve 0-4 h after induction (AUC4h, not background-subtracted), DNA-recorder readout of cleavage of the substrate (dimensionless); higher = more cleavage of the substrate by the protease variant
Details: temperature: 34 °C; time window: 0-4 h after rhamnose induction
Procedure: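 In vivo DNA recorder in E. coli TOP10(DE3) ΔrhaA at 34 °C. Each TEVp single-site mutant (parent TEVp 0) is paired with a single-site variant of the 7-mer TEVs (canonical ENLYFQ|S). The substrate sits between flexible linkers in a Bxb1-sfGFP-TEVs-SsrA fusion, so cleavage stabilises Bxb1 and speeds flipping of a recombination array, read by NGS. The value is the raw area under the fraction-flipped curve over 0-4 h after rhamnose induction (AUC4h), with ≥20 reads per time point. It is not background-subtracted; inactive controls average about 0.047.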
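Note: Bxb1 expression induced with 0.2% (w/v) L-rhamnose at OD600 near 0.5, cultures sampled hourly, flipped fraction per protease–substrate barcode pair counted by paired-end Illumina sequencing.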

Variant	area with substrate ANLYFQS	area with substrate CNLYFQS	area with substrate DNLYFQS	area with substrate GNLYFQS	area with substrate HNLYFQS	area with substrate INLYFQS	area with substrate KNLYFQS	area with substrate LNLYFQS	area with substrate MNLYFQS	area with substrate PNLYFQS	area with substrate SNLYFQS	area with substrate TNLYFQS	area with substrate VNLYFQS	area with substrate WNLYFQS	area with substrate YNLYFQS	area with substrate NNLYFQS	area with substrate QNLYFQS	area with substrate FNLYFQS	area with substrate RNLYFQS
T176Y	0.0586	0.0624	0.051	0.0472	0.0501	0.0676	0.0616	0.0589	0.0552	0.067	0.0548	0.0565	0.053	0.0518					
Q194R	0.0756	0.0563	0.0914	0.0545	0.0504	0.0552	0.0692	0.0677	0.0725	0.0651	0.0524	0.0981	0.0585	0.0631	0.0621				
F180V	0.0555	0.0751	0.0535		0.0572	0.0471		0.0694	0.0556	0.0613	0.0535	0.0671	0.0598	0.0557	0.0643	0.0582	0.062		
F180C	0.0662	0.0581	0.0874		0.057				0.0629		0.0738	0.0736			0.0503	0.0903	0.0406	0.0406	0.033
F180L	0.0591	0.0725	0.0654		0.0626	0.0653			0.0654		0.071	0.0528		0.0519	0.0762	0.0506		0.0697	
I167W	0.072	0.0598	0.0353	0.0593	0.0521	0.0593		0.0658	0.0554	0.0569	0.0557	0.0628		0.0585	0.0583				0.0563
I167T	0.0649	0.0592	0.059		0.0554		0.0695	0.067		0.0466	0.0604	0.0588	0.0542			0.0585			
S171E	0.0563	0.0769	0.0591					0.0624	0.0601		0.0776		0.0541	0.0565			0.125		0.0477
P155A	0.0496	0.0708	0.104	0.0639	0.0559		0.07	0.0657	0.0601	0.0615		0.0547		0.0466					
P155L	0.0786	0.0491	0.0589	0.0572	0.0528		0.0594	0.0479	0.0527	0.054	0.0438	0.0564	0.0609	0.05	0.0631	0.0527	0.0441	0.0186	0.056
P155S	0.0639	0.045	0.0617		0.0485	0.0598	0.0589	0.0666	0.0767	0.0555	0.0502	0.0579	0.0466	0.0522	0.046	0.0602		0.0636	
P155W	0.0487	0.0671	0.0576	0.0526	0.08	0.0487	0.0512	0.0623	0.0478	0.0547	0.0526	0.0568		0.0532	0.0416	0.0432	0.0655	0.0404	0.057
